Each structure is given as a SMILES string. The whole screen tested about 310,000 compounds, of which about 14,000 (4.5%) showed an effect of 50% or more. The effect is printed as a negative number. Some of the results follow.

Experimental findings from publication PMC4336329 (PLoS ONE, 2015) are described below.
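Further: peak tail current of the secondary pulse compared with the same well before compound.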

Sequence of human ether-à-go-go-related gene (hERG) potassium channel (Q12809 whole entry, looked up): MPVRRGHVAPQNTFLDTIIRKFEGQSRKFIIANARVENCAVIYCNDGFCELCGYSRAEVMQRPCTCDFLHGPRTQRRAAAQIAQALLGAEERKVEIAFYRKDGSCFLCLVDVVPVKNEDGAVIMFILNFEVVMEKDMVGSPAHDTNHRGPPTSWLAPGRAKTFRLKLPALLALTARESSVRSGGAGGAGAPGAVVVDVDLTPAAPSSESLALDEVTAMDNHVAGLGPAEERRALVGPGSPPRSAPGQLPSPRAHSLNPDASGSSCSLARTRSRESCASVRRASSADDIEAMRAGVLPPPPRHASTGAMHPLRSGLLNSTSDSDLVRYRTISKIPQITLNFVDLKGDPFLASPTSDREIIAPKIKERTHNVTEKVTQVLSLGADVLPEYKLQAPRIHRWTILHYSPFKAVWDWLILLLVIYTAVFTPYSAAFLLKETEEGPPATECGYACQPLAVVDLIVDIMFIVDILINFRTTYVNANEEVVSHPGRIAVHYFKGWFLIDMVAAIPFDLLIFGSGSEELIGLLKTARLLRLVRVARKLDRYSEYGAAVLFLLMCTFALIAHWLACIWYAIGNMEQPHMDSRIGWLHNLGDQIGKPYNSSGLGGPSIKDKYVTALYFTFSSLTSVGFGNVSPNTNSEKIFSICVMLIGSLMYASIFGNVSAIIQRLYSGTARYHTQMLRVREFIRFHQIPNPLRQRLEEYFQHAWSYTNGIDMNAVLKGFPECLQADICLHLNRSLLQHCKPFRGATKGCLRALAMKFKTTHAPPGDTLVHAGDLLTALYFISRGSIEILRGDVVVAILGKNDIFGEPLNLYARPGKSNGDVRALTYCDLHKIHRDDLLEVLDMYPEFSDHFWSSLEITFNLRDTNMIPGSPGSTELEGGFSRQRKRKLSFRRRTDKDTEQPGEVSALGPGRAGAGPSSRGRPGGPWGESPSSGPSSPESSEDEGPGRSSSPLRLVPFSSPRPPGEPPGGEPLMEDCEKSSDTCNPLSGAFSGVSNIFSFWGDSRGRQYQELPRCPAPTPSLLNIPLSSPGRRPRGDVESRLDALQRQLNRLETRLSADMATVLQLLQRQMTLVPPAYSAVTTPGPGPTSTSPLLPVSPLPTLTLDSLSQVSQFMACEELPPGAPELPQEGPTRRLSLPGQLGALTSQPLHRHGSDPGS

The test has as its target human ether-à-go-go-related gene (hERG) potassium channel (human, UniProt Q12809). The experiment in a line: primary screen, population patch clamp on CHO cells stably expressing hERG.
For `CCC(=O)Nc1nnc(SCC(=O)Nc2ccc3c(c2)OCCO3)s1`, the “hERG current change (%, negative = inhibition) at 10uM” value amounted to 20.8%.

Consider `CN(NC(N)=O)c1ncc(C(F)(F)F)cc1Cl`, for which the “hERG current change (%, negative = inhibition) at 10uM” value was determined as 3.8%.

`Cc1cccn2c(=O)nc(SCC(=O)N3CCN(c4ccccc4)CC3)nc12`: the “hERG current change (%, negative = inhibition) at 10uM” value is listed as -67.6%.

Turning to `CCC(C)n1c(=S)[nH]c2c(sc3ccc([N+](=O)[O-])cc32)c1=O` (centres unmarked), the “hERG current change (%, negative = inhibition) at 10uM” value was found to be 9.95%.

On to `CCOC(=O)CC(NC(=O)c1cccc2c1C(=O)N(Cc1cccnc1)C2)c1ccc(OC(C)C)cc1` (centres unmarked), for which the “hERG current change (%, negative = inhibition) at 10uM” value is 11.9%.

In the case of `COc1ccc(NC(=O)C(CCSC)NC(N)=O)cc1Cl` (centres unmarked), the “hERG current change (%, negative = inhibition) at 10uM” value is on record as 27.6%.

Regarding `Cc1cccc(NC(=O)c2nc[nH]c2C(=O)N2CCc3ccccc3C2)c1`, the “hERG current change (%, negative = inhibition) at 10uM” value worked out at 5.13%.

For `O=C(NNS(=O)(=O)c1ccc(Cl)cc1)c1sccc1-n1cccc1`, the “hERG current change (%, negative = inhibition) at 10uM” value was -2.65%.

As for `CCCCCOc1ccc(NC(=O)C(=O)NCCC2=CCCCC2)cc1`, the “hERG current change (%, negative = inhibition) at 10uM” value is recorded as 6.54%.

For `COc1ccccc1N1C(=O)CSC1=NC(=O)c1ccccc1`, the “hERG current change (%, negative = inhibition) at 10uM” value is given as 4.68%.

`N#Cc1ccc(C23CC4(C2)[C@H](CN(CC2CCCCC2)[C@@H]4c2ccccc2)C3c2ccccc2)cc1` (some centres unmarked): the “hERG current change (%, negative = inhibition) at 10uM” value was -13.6%.

In the case of `Cc1ccc(C(C(=O)NC2CCCC2)N(CCCO)C(=O)Cn2nnc(-c3ccc(C)o3)n2)cc1` (centres unmarked), the “hERG current change (%, negative = inhibition) at 10uM” value turned out to be 15.3%.

Consider `COc1ccc(C(NC(=O)/C=C/c2ccco2)c2ccc(OC)c(OC)c2)cc1` (centres unmarked), for which the “hERG current change (%, negative = inhibition) at 10uM” value is given as -11.2%.

For `CSc1nc(-c2ccco2)cc(C(F)(F)F)c1C#N`, the “hERG current change (%, negative = inhibition) at 10uM” value was determined as 24.5%.

As for `Cc1ccc(C(=O)NNC(=O)c2ccc(Br)s2)cc1S(=O)(=O)N1CCOCC1`, the “hERG current change (%, negative = inhibition) at 10uM” value is listed as -26.2%.

On to `COc1cccc(N/C(SC)=C(/C#N)C(N)=O)c1`, for which the “hERG current change (%, negative = inhibition) at 10uM” value was -10.1%.

For the compound `O=C(Nc1nnc(SCc2ccc(F)cc2)s1)c1ccc2c(c1)C(=O)N(c1ccccc1Cl)C2=O`, the “hERG current change (%, negative = inhibition) at 10uM” value amounted to 40.4%.

Turning to `CCCOc1c(Br)cc(C(=O)OCC(=O)NC(=O)c2cccn2C)cc1OC`, the “hERG current change (%, negative = inhibition) at 10uM” value is listed as 12.3%.

Take `CCCCNC(=O)C1CCC(=O)N1CCc1ccccc1` (centres unmarked): the “hERG current change (%, negative = inhibition) at 10uM” value worked out at 18.2%.

Regarding `O=C(CNC(=O)N1CC(=O)Nc2ccccc21)NCCc1cccc(F)c1`, the “hERG current change (%, negative = inhibition) at 10uM” value amounted to 10.7%.

`Cc1cccc(NC(=O)Cn2c(=O)n(Cc3ccco3)c(=N)c3c4c(sc32)COC(C)(C)C4)c1`: the “hERG current change (%, negative = inhibition) at 10uM” value is listed as -6.46%.

As for `O=C(CSc1nnc(NC(=O)c2ccco2)s1)Nc1cccc(F)c1`, the “hERG current change (%, negative = inhibition) at 10uM” value is recorded as -4.91%.

Regarding `CCC(=O)c1ccc2c(c1)OCCO2`, the “hERG current change (%, negative = inhibition) at 10uM” value is listed as 3.36%.

Take `CCOC(=O)c1cccc(OCC(O)CNCCOc2ccccc2F)c1` (centres unmarked): the “hERG current change (%, negative = inhibition) at 10uM” value is listed as -63%.

As to `Cc1cc(C)nc(N/N=C/c2cc(C)n(CC(F)(F)F)c2C)n1`, the “hERG current change (%, negative = inhibition) at 10uM” value turned out to be 3.98%.

For `CCCCCn1c(CN2CCCCC2C)nc2c1c(=O)n(C)c(=O)n2C` (centres unmarked), the “hERG current change (%, negative = inhibition) at 10uM” value was -44.7%.

Turning to `COC(=O)CNC(=O)CSc1nnc(-c2ccc(OC)cc2)n1CC(C)C`, the “hERG current change (%, negative = inhibition) at 10uM” value is reported as 4.97%.

In the case of `CCn1c(CNC(=O)c2ccc(OC)c(OC)c2)nnc1SCC(=O)c1ccc(OC)cc1`, the “hERG current change (%, negative = inhibition) at 10uM” value was -0.747%.

As for `O=C(O)CSc1nnc(-c2cccnc2)n1Cc1ccccc1`, the “hERG current change (%, negative = inhibition) at 10uM” value was found to be 10.4%.

As for `Fc1ccc(SCCc2cccc[nH+]2)cc1.O=P([O-])(O)O`, the “hERG current change (%, negative = inhibition) at 10uM” value came out at 9.83%.

For the compound `CCN(C(=O)COc1ccccc1)C1CCCCC1`, the “hERG current change (%, negative = inhibition) at 10uM” value was 7.42%.

Turning to `Cc1ccccc1Nc1nc(N)nc(CSCc2c(C)noc2C)n1`, the “hERG current change (%, negative = inhibition) at 10uM” value worked out at 7.34%.

As for `O=C(NCCCN1CCCCC1)c1ccc2c(c1)ncn2C1CCCC1`, the “hERG current change (%, negative = inhibition) at 10uM” value worked out at 8.82%.

With `CCCn1nc(C(=O)NCC(C)(C)N2CCOCC2)c2ccccc2c1=O`, the “hERG current change (%, negative = inhibition) at 10uM” value is reported as -17.5%.

Consider `C[C@@H](NC(=O)c1nc[nH]c1C(=O)NC1CCN(C(=O)OC(C)(C)C)CC1)c1ccccc1`, for which the “hERG current change (%, negative = inhibition) at 10uM” value is given as -14.4%.

For the compound `CC(C)CSc1nnc2c3ccccc3n(C)c2n1`, the “hERG current change (%, negative = inhibition) at 10uM” value is -11.9%.

Take `Cc1c(NC(=O)N2CCCCCC2)c(=O)n(-c2ccccc2)n1C`: the “hERG current change (%, negative = inhibition) at 10uM” value came to 13.8%.

In the case of `CCOn1c(=O)c(-c2cc(OC)ccc2OC)[n+]([O-])c2ccccc21`, the “hERG current change (%, negative = inhibition) at 10uM” value was 14%.

For the compound `CC(NC(=O)C1CCCN(S(=O)(=O)c2cnc[nH]2)C1)c1ccccc1` (centres unmarked), the “hERG current change (%, negative = inhibition) at 10uM” value is reported as -4.22%.

`Cc1ccc(S(=O)(=O)CCC(=O)OCC(=O)c2c(N)n(CC(C)C)c(=O)n(C)c2=O)cc1`: the “hERG current change (%, negative = inhibition) at 10uM” value is -27.9%.

As for `Cc1ncc(CN2CCCC(C(=O)Nc3ccc(-c4cccc(F)c4)cc3)C2)n1C` (centres unmarked), the “hERG current change (%, negative = inhibition) at 10uM” value was -69.5%.

In the case of `O=C(CCNS(=O)(=O)c1ccccc1C(F)(F)F)N1CCN(S(=O)(=O)c2cccc(F)c2)CC1`, the “hERG current change (%, negative = inhibition) at 10uM” value is given as -5.52%.

In the case of `O=c1cc(N2CCN(c3ccccc3)CC2)[nH]c(=O)n1-c1ccccc1`, the “hERG current change (%, negative = inhibition) at 10uM” value was 7.02%.

In the case of `CS(=O)(=O)Nc1ccccc1Oc1ccccc1`, the “hERG current change (%, negative = inhibition) at 10uM” value stood at 15.7%.

As to `Cc1nc2c3ccccc3nc(NNC(=O)CCC(=O)NC(C)C)n2n1`, the “hERG current change (%, negative = inhibition) at 10uM” value is 13.3%.

Turning to `Cc1cc(C)nc(N2CCCC(C(=O)Nc3cc(F)ccc3C)C2)n1` (centres unmarked), the “hERG current change (%, negative = inhibition) at 10uM” value is given as -3.45%.

For the compound `Cc1oc(-c2cccc(F)c2)nc1CN1CCCCC1CCc1ccccn1` (centres unmarked), the “hERG current change (%, negative = inhibition) at 10uM” value is on record as -91.5%.

As to `CCCCn1nnnc1NCc1ccc(OC)c(OC)c1OC`, the “hERG current change (%, negative = inhibition) at 10uM” value was -4.07%.

For the compound `Br.CCN1C2=NCCCN2c2cc(C)c(C)cc21`, the “hERG current change (%, negative = inhibition) at 10uM” value is recorded as -23.2%.

In the case of `COc1ccc(NC2CCCN(C(=O)CCc3ccccc3F)C2)cc1` (centres unmarked), the “hERG current change (%, negative = inhibition) at 10uM” value is -10.7%.

In the case of `CC(=O)O.CC(C)CC1NC(C(=O)O)Cc2c1[nH]c1ccccc21` (centres unmarked), the “hERG current change (%, negative = inhibition) at 10uM” value stood at 15.3%.

On to `Cc1ccc(CC2S/C(=N/c3ccccn3)NC2=O)cc1` (centres unmarked), for which the “hERG current change (%, negative = inhibition) at 10uM” value is given as 20.8%.

As to `Cc1ccccc1CN1CCN(CCCc2ccccc2)C(CCO)C1` (centres unmarked), the “hERG current change (%, negative = inhibition) at 10uM” value was -70%.

Take `O=[N+]([O-])c1ccccc1/C=C/CN1CCN(Cc2ccc3c(c2)OCO3)CC1`: the “hERG current change (%, negative = inhibition) at 10uM” value is -46.5%.

Regarding `CCn1c(SCC(=O)N2CCCC(C)C2)nc2c1c(=O)n(C)c(=O)n2C` (centres unmarked), the “hERG current change (%, negative = inhibition) at 10uM” value was determined as 0.929%.

For the compound `C=CC[C@@H](C)CC(=O)C(CCCN=[N+]=[N-])SOOc1ccccc1` (some centres unmarked), the “hERG current change (%, negative = inhibition) at 10uM” value is reported as -5.93%.
